The whole screen tested about 52,000 compounds, of which about 1,700 (3.3%) were called active. Rule as the data show it: active = survival mostly below about 52% (no sharp cut-off); inactive = mostly above about 56%. This is one part of the list.

In the experiment the test system is Wild type. In words: growth inhibition of S. aureus wild type versus tarO mutant, primary screen, teichoic acid synthesis inhibitors, RN4220, OD600 (AID 463173). As to conditions: S. aureus RN4220 wild type/DeltatarO growth, OD600, 18 h, hits give low values, screened at 18.75 µg/mL (by protocol).
In the case of `CCCn1c(SCC(=O)N2CCCC2)nnc1C(C)C`, the survival was inactive: 105%. In the case of `COc1ccc(N(Cc2nnc3n2CCCCC3)C(=O)Nc2ccc(Cl)cc2)cc1Cl`, the survival is inactive: 80%. As for `Cc1cccc(NC(=O)CSc2cn(CC(=O)N3CCC(C)CC3)c3ccccc23)c1C`, the figure is inactive: 96%; as for `Fc1ccccc1-n1ncc2c1ncn1nc(COc3ccc(Cl)cc3)nc21`, inactive: 91%; as for `COc1ccccc1CNC(=O)c1cc(S(=O)(=O)N2CCCCCC2)cn1C`, inactive: 132%. As for `O=C1CC(c2nnc(Cc3ccc(F)cc3)o2)CN1c1ccccc1` (stereo not given), the figure is inactive: 111%; as for `Cc1cccc(N2CCN(S(=O)(=O)c3nnc(NC(=O)c4ccc(Cl)cc4)s3)CC2)c1`, inactive: 84%.

Consider `COc1ccc(OC)c(NC(=O)c2ccc3nc(C(C)C)oc3c2)c1`, for which the survival is inactive: 60%. Take `CC(=O)c1cccc(NC(=O)Cn2c(-c3cncs3)nc3ccccc32)c1`: the survival was inactive: 53%.

As for `CN(C)CCOC(=O)c1ccco1`, the survival is inactive: 104%. `COc1ccccc1N1CCN(C(=O)c2cc3c(s2)-c2ccccc2OC3)CC1`: the survival was inactive: 91%. Take `CCc1cccc(NC(=O)c2cc(S(=O)(=O)N3CCCCCC3)cn2C)c1`: the survival is inactive: 65%.

`Cc1ccccc1CN1CCC(CNC(=O)c2cc3ccc4cccnc4c3[nH]2)CC1`: the survival is inactive: 79%. In the case of `COc1ccccc1NC(=O)c1sc2nc(C)c(C(=O)Nc3ccc(Cl)cc3)c(-c3ccc(Br)cc3)c2c1N`, the survival was inactive: 98%.

Consider `CC(C)(C)C(=O)NC1CC(=O)N(c2ccc3c(c2)OCCO3)C1` (stereo not given), for which the survival was inactive: 140%. As for `Cc1noc(Cn2c(=O)c3cc4c(cc3n(CC(=O)Nc3ccc(C(C)C)cc3)c2=O)OCO4)n1`, the figure is inactive: 76%; as for `CC(C)NC(=O)Cc1csc2nc(-c3ccccc3)cn12`, inactive: 125%.

As to `CCc1ccccc1N1CC(c2nc3ccccc3n2CCCCOc2ccccc2OC)CC1=O` (stereo not given), the survival is inactive: 93%.

On to `O=C1CCc2cc(S(=O)(=O)NC(C(=O)Nc3ccc(F)cc3)c3ccccc3)ccc2N1` (stereo not given), for which the survival was inactive: 78%.

As for `COc1cccc(-c2cc(C(F)(F)F)n3nc(-c4ccc(C)cc4)cc3n2)c1`, the survival was inactive: 129%. Take `CNS(=O)(=O)c1ccc(NC(=O)c2nc3nc(C)cc(C(F)F)n3n2)cc1`: the survival is inactive: 132%. Take `CCN(c1ccccc1)S(=O)(=O)c1ccc(NC(=O)c2cc(=O)c3c(C)cc(C)cc3o2)cc1`: the survival was inactive: 82%. The figure for `Cc1nc2nc(CNC(=O)c3cccc(F)c3)nn2c(C)c1CCC(=O)Nc1ccc(F)cc1` is inactive: 90%; for `O=c1n(Cc2ccccc2)nc2n1-c1ccccc1OC2` it is inactive: 115%.

For the compound `CC(C)c1cnc2c(c1SCc1ccc([N+](=O)[O-])cc1)c(=O)n(C)c(=O)n2C`, the survival is inactive: 102%. `COc1cc2c(cc1OC)C(COc1ccc(F)cc1)N(C(=O)C(C)C)CC2` (stereo not given): the survival is inactive: 49%.

As for `CCOc1ccc(NS(=O)(=O)c2ccc3[nH]cc(C(=O)N4CCCC4)c(=O)c3c2)cc1`, the survival was inactive: 86%. As for `Cc1ccc(S(=O)(=O)Cc2csc(N)n2)cc1`, the figure is inactive: 110%; as for `COc1ccc(S(=O)(=O)N(Cc2nc(-c3ccccc3)no2)C2CCCCC2)cc1`, inactive: 81%. The figure for `Cc1ccccc1C(=O)NCC(c1ccc(N(C)C)cc1)N1CCCC1` (stereo not given) is inactive: 66%.

`Fc1ccc(Nc2nc(SCc3ccc(Cl)cc3)nc3ccccc23)cc1`: the survival was inactive: 90%. Regarding `COc1cccc(N2C(=O)CC(N3CCC(C(N)=O)(N4CCCCC4)CC3)C2=O)c1` (stereo not given), the survival is inactive: 91%. For the compound `Cc1cccc(-c2noc(-c3cccnc3NCc3ccccc3Cl)n2)c1`, the survival was inactive: 79%. For `O=S(=O)(NCC(c1ccco1)S(=O)(=O)c1ccccc1)c1cc(F)ccc1F` (stereo not given), the survival is inactive: 87%. The figure for `CNC(=O)C1CCC(Cn2c(=O)c3sccc3n(CC(=O)N3CCCCC3C)c2=O)CC1` (stereo not given) is inactive: 113%; for `O=C(CCS(=O)(=O)c1ccc(Br)s1)Nc1c(F)cccc1F` it is inactive: 134%. Regarding `COc1cc(C2CC(=O)N(c3ccc(C)c(Cl)c3)C3=C2C(=O)OC3)cc(OC)c1OC` (stereo not given), the survival was inactive: 76%. `CCCCOc1ccc(NC(=O)CSc2ccc(C(=O)O)cn2)cc1`: the survival is inactive: 89%.

As for `CCN1CCN(CCC(=O)Nc2ccc(C)cc2)CC1`, the survival is inactive: 102%. As for `CC(C)(C)n1nnnc1CN1CCC(NC(=O)Nc2ccc(F)cc2)CC1`, the survival was inactive: 103%. Turning to `CCOC(=O)c1ccc(NC(=O)Nc2cccc(OCc3cc(=O)n4ccc(C)cc4n3)c2)cc1`, the survival is inactive: 74%. With `COc1ccc(NC(=O)CCc2nc3cccnc3n2Cc2cccs2)c(OC)c1`, the survival is inactive: 80%.

Take `Cc1cc(N2CCN(c3ccccc3F)CC2)n2cnnc2n1`: the survival was inactive: 84%.

On to `CCCSc1ncc(Cl)c(C(=O)Nc2ccc(OC)cc2OC)n1`, for which the survival is inactive: 86%. Turning to `O=C(NCc1ccc(F)cc1)c1ccc2c(c1)N(Cc1ccc(F)cc1Cl)C(=O)CS2`, the survival was inactive: 86%. Regarding `CC(C)CCSc1nc2c(c(=O)n(C)c(=O)n2C)n1Cc1ccccc1Cl`, the survival was inactive: 62%. `O=C(NCCn1cc(SCc2ccc(C(F)(F)F)cc2)c2ccccc21)c1ccccc1F`: the survival is inactive: 35%.

In the case of `COc1cccc(CNC(=O)CCn2ccc3cc(S(=O)(=O)N4CCCC4)ccc32)c1`, the survival was inactive: 73%. The figure for `Cc1ccc(CN2C(=O)SC(Nc3ccccc3)C2=O)cc1` (stereo not given) is inactive: 68%; for `CCn1cnc2c(=O)oc3ccc(S(=O)(=O)N4CCN(c5cc(C)ccc5C)CC4)cc3c21` it is inactive: 101%; for `CN(C)S(=O)(=O)c1ccc(S(=O)(=O)N2CC=C(c3ccc(F)cc3)CC2)cc1` it is inactive: 102%. Regarding `COc1ccc(NC(=O)Nc2nnc(SCC(=O)Nc3cccc(C)c3C)s2)cc1`, the survival was inactive: 113%. On to `COc1ccc(CCn2nnnc2CN2CCN(Cc3ccccc3)CC2)cc1OC`, for which the survival is inactive: 108%. The figure for `CCOc1ccc(NC(=O)CCn2c(-c3ccc(F)cc3)cc(C(C)=O)c2C)cc1` is inactive: 69%; for `O=S(=O)(NCCc1ccc(Cl)cc1)c1ccc(N2CCCCS2(=O)=O)cc1` it is inactive: 92%.

Consider `COc1ccc(C2=C(C)C(=O)N(Cc3ccc(C(=O)NCc4ccccc4C)cc3)S2(=O)=O)cc1`, for which the survival is inactive: 66%.

Regarding `COc1ccccc1OCCCn1c(-c2ccc(Cl)cc2)nc2ccccc2c1=O`, the survival was inactive: 34%. Consider `COc1cc(NC(=O)CCN2CCOCC2)cc(OC)c1`, for which the survival was inactive: 108%. Turning to `O=C(CSc1nnc(-c2ccccc2)c(-c2ccccc2)n1)Nc1ccccc1Cl`, the survival is inactive: 70%.

As to `CCCOc1ccc(C(=O)Nc2cc3nn(-c4ccc(CC)cc4)nc3cc2C)cc1`, the survival is inactive: 59%. As for `CCC(C)Cn1c(COc2ccc(OC)cc2)nc2ccccc21` (stereo not given), the figure is active: -1%; as for `CCC(O)(CCN1CCCCC1)c1ccccc1` (stereo not given), inactive: 113%. For `CCOC(=O)Cc1c(C)nc2c(-c3ccc(OC)c(OC)c3)c(C)nn2c1C`, the survival is inactive: 61%. Turning to `CCN1C(=O)/C(=c2/s/c(=C3\SC(C)=C(C)N3CC)c(=O)n2CC)N(C)C1=S`, the survival is inactive: 104%. With `CC1Cc2ccccc2N1C(=O)CSc1nc(N)cc(N)n1` (stereo not given), the survival was inactive: 99%.

Consider `O=C(CCC(=O)N1CC2CCCN2c2ccccc21)NCc1ccccc1F` (stereo not given), for which the survival was inactive: 129%. With `CCOC(=O)CC(NC(=O)c1cc2cc(OC)ccc2oc1=O)c1ccc(OC)cc1` (stereo not given), the survival was inactive: 93%. On to `Cc1cccc(C(=O)Nc2nnc(S(=O)(=O)N3CCC(C)CC3)s2)c1`, for which the survival is inactive: 34%. As for `COc1ccc(-c2cc(C(=O)Nc3ccc(C#N)cc3)no2)cc1`, the figure is inactive: 86%; as for `Cc1cccc(OCC(=O)OCc2cc(=O)n3nc(C4CC4)sc3n2)c1`, inactive: 112%. With `O=C(NCc1ccccc1)c1cccc(Nc2nc3ccccc3n3nnnc23)c1`, the survival was inactive: 83%. As for `CCOc1ccc(CNC(=O)CCS(=O)(=O)c2cc3c4c(c2)CCN4C(=O)CC3)cc1`, the figure is inactive: 71%; as for `O=C(C1CCN(S(=O)(=O)c2cccc3nonc23)CC1)N1CCN(c2ccc(F)cc2)CC1`, inactive: 95%; as for `O=C(c1ccccc1)c1ccc(C(=O)O)c(C(=O)O)c1`, inactive: 106%.

In the case of `CC1CCN(C(=O)CN2CCSc3ccc(S(=O)(=O)N(C)C)cc32)CC1`, the survival is inactive: 72%. On to `CCOC(=O)c1c(C)oc2ncnc(Nc3ccc(CC)cc3)c12`, for which the survival was inactive: 86%.

On to `CCC(=O)N1CCc2cc(S(=O)(=O)NCCC(=O)NC(C)c3ccccc3)ccc21` (stereo not given), for which the survival was inactive: 72%. For the compound `Cc1cc(C)cc(OC(=O)c2cc(-c3ccc4c(c3)OCCO4)on2)c1`, the survival is active: -7%. `COc1ccc(/C=C/c2nc(-c3ccccc3O)n(-c3ccccc3)n2)cc1OC`: the survival was active: 8%. As for `CC(=O)c1ccc(NC(=O)C(Cc2ccccc2)NS(=O)(=O)c2ccc3c(c2)CCC(=O)N3)cc1` (stereo not given), the figure is inactive: 78%.

For the compound `CCOC(=O)c1ccc(N2C(=O)c3n[nH]c(C)c3C2c2cccc(Br)c2)cc1` (stereo not given), the survival was active: 3%. Regarding `O=c1cc(-c2ccccc2)n2c(SCc3ccc(Cl)cc3)nnc2[nH]1`, the survival was inactive: 85%.

As for `COc1ccc(C(=O)c2cn(Cc3ccccc3F)c3cc4c(cc3c2=O)OCO4)cc1`, the survival was inactive: 89%.

As for `COc1ccccc1C(=O)Nc1ccc2oc(-c3cccc(Cl)c3Cl)nc2c1`, the survival is inactive: 100%. On to `COc1ccc(-n2c3c(cc(-c4nc(-c5ccc(C)cc5)cs4)c2=O)C(=O)CC(C)(C)C3)cc1`, for which the survival was inactive: 78%. In the case of `CC(C)C(=O)NCC(c1ccc2c(c1)OCO2)N1CCN(c2ccccc2F)CC1` (stereo not given), the survival was inactive: 91%. Regarding `O=C(NCc1ccccc1)c1ccco1`, the survival is inactive: 111%. For the compound `CC1CCCN(C(=O)c2cc3c(=O)n(C)c4ccccc4c3s2)C1` (stereo not given), the survival was inactive: 134%. As to `Cc1sc2c(c1C)c(=O)n(-c1ccc(Cl)cc1)c(=O)n2Cc1cc(=O)n2ccccc2n1`, the survival is inactive: 78%. For `Cc1ccc2nc(N3CCC(C(=O)N4CCN(c5cccc(C)c5C)CC4)CC3)[nH]c2c1`, the survival is inactive: 76%.

Values taken from PubChem BioAssay AID463173 (ICCB-Longwood Screening Facility, Harvard Medical School, 2010).
